Some of the results follow. Further columns of the screen follow, without active or inactive calls. Compounds called inactive in the main read-out are mostly missing here.
Assay: growth inhibition of WT strain, primary screen, mitochondrial fusion inhibitor project, WT and mutant strains, chemical genetic (AID 1362); also: tested in S. cerevisiae
Conditions: mitochondrial fusion phenotypic screen, at 10 µM

Structure (SMILES)	inhibition
COc1ccc(NC(=O)CSc2ccc3c(c2)OCCO3)cc1OC	8.67%
O=C(CCc1ccccc1)NC(=S)Nc1ccccc1Br	28.6%
NCCOc1ccc(C23CC4CC(CC(C4)C2)C3)cc1	95.6%
CCC(=C(c1ccc(OC)cc1)c1ccc(OC)cc1)c1cn(CC(O)CN2CCN(C)CC2)c2ccccc12 (centres undefined)	76.3%
CCNC(=S)N/N=C/c1cccc(OCc2c(F)cccc2Cl)c1	35.2%
Cc1ccc(NCC(=O)N/N=C/c2cc3ccccc3nc2Cl)cc1	-9.45%
Cc1cccc(C(=O)NC(C(=O)Nc2nc(-c3ccccn3)cs2)C(C)C)c1 (centres undefined)	-9.04%
Cc1ccc(CNCC(O)(c2ccccc2)c2ccc(Cl)cc2)cc1 (centres undefined)	14.7%
Cc1ccc(Sc2cnn(-c3ccccc3)c(=O)c2Cl)cc1	41.4%
O=C(Nc1ccc([N+](=O)[O-])cc1)Nc1ccc(N2CCOCC2)c2nonc12	53.1%
CC12CCC(C(=O)N(Cc3ccccc3)Cc3ccccc3)(OC1=O)C2(C)C (centres undefined)	53.5%
CCN1/C(=C/c2ccc3cc(C)cc(C)c3[n+]2CC)Sc2cc(C)ccc21	90.4%
O=C(O)c1ccc(C=C(c2nc3ccccc3s2)c2nc3ccccc3s2)cc1	28.3%
CCC1CCCCN1c1cc(C)nc2cc(-c3cccc(C)c3)nn12 (centres undefined)	37.4%
O=C(Nc1ccc(Cl)c(Cl)c1)c1ccc(Cn2cc(Cl)cn2)cc1	27.9%
Cc1ccc(O)c(-c2cc(-c3ccccc3C)[nH]n2)c1	76.7%
CC(C)(C)C1CCc2c(sc(NC(=O)CSc3ncn[nH]3)c2C#N)C1 (centres undefined)	21.9%
O=C(COc1ccc([N+](=O)[O-])cc1)NNC(=S)NC(=O)c1ccc(Br)cc1	45.3%
c1ccc(N/N=C2\CCCc3ccccc32)nc1	29%
Cc1cc(C)cc(-n2c(C)cc(/C=N/NC(=O)CN(c3c(C)cccc3C)S(C)(=O)=O)c2C)c1	-1.45%
O=C(Oc1ccc(-c2nnco2)cc1)N(c1ccccc1)c1ccccc1	14.3%
Cc1cc(C)c(Cn2cnc(-c3ccc([N+](=O)[O-])cc3)c2)c(C)c1	54.3%
CC(C)CCNC(=S)Nc1ccc(Br)cc1	24.4%

Structure (SMILES)	inhibition
Cc1nc(S/C(=C/c2ccc(-c3cccc(Cl)c3)o2)C(=O)O)n[nH]1	64.5%
O=C1CCC(/C=C/c2ccccc2)=NN1Cc1ccccc1Cl	41.9%
O=C(N/N=C/c1c(Cl)cccc1Cl)c1n[nH]c2c1CCCC2	-8.87%
COc1ccc(/C=C2\CCc3ccccc3C2=O)cc1Cn1nc(C)cc1C	69%
O=C(c1cc(-c2ccccc2)nc2ccccc12)N1CCc2ccccc2C1	57.5%
O=C(CSc1ncnc2c(-c3ccc(Cl)cc3)nsc12)c1ccccc1	69.2%
CCOc1ccccc1-n1c(CN2CCN(C(=O)c3ccco3)CC2)nc2ccccc2c1=O	8.43%
N#Cc1ccc(-c2cccnc2)nc1SCc1ccc(Cl)c(Cl)c1	26.6%
COc1ccccc1-c1c(C#N)c(N)nc2c1CCc1ccccc1-2	42.1%
CCc1ccccc1NC(=O)/C(=C/c1ccco1)c1ccccc1	21.9%
CCc1ccc(C2=NN(c3ccc(S(N)(=O)=O)cc3)C(c3ccc(F)cc3)C2)cc1 (centres undefined)	59.4%
COc1cc(OC)c(NC(=S)Nc2cc(Cl)cc(Cl)c2)cc1Cl	48.9%
O=C(Nc1ccccc1)Nc1ccc(Cl)c([N+](=O)[O-])c1	63.5%
Cc1cccc2sc(N(CCCN(C)C)C(=O)COc3ccc(Cl)cc3)nc12	88.7%
COc1ccc(Cl)cc1NC(=S)NCCSc1ccc(C)cc1	48.8%
Cc1cc(-c2nn(-c3ccccc3F)cc2CN2CCN(c3ccccn3)CC2)c(C)s1	32%
Cc1ccc2c(N)c(C#N)sc2n1	0.66%
COc1ccc(OC)c(-c2cc(C3CCN(c4cc(Cl)nc(N)n4)CC3)[nH]n2)c1	-13.2%
CN(Cc1cccs1)c1nc(-c2cccnc2)nc2ccccc12	43.5%
CC1(C)C(=O)OC(c2cccn2-c2cccc([N+](=O)[O-])c2)C2(CCCCC2)C1=O (centres undefined)	18.4%
CCCCNC(=S)N(C)/N=C/c1c(F)c(F)c(F)c(F)c1F	4.89%
COc1cccc(C(=O)Nc2nc(-c3ccccc3)c(-c3ccccc3)o2)c1	27.1%
CSc1ccc(/C=N/n2c(Cc3ccc(Br)cc3)n[nH]c2=S)cc1	24.3%

Structure (SMILES)	inhibition
CCOC(=O)C1=C(c2cccc(Oc3ccccc3)c2)NC(=S)NC1C (centres undefined)	23.6%
CCN1/C(=C/c2ccc3cc(C)ccc3[n+]2C)Sc2ccc3sccc3c21	80.1%
O=C(Nc1ccc(Cl)c(S(=O)(=O)Nc2ccccc2Cl)c1)c1cccs1	81.3%
Cc1cc(=O)oc(C)c1C(=O)Nc1ccc2nsnc2c1	-8.26%
CC1=CCC[C@@H]2[C@@](C)(CC/C(C)=C/C(=O)O)[C@H](C)CC[C@@]12C	-14.9%
Cc1ccc(C)c(N2CCN(C(=O)Cc3cn(C)c4ccccc34)CC2)c1	3.19%
Cc1cccc(C(=O)c2cnc3ccccc3c2-c2ccccc2)c1	29%
CCCCNC(=S)N1CCN(C(c2ccccc2)c2ccccc2)CC1	20.6%
Oc1cccc(/C=N/N(Cc2ccccc2)c2ccccc2)c1	88.3%
CC(C)SC1=NC(C)(C)C=C(/C=C/c2ccc(Cl)cc2Cl)N1	30.4%
CC(C)SC1=NC(C)(C)C=C(/C=C/c2c(Cl)cccc2Cl)N1	33.3%
CCC1(c2ccccc2)NC(=S)N(c2ccc(C)c(C)c2)N1 (centres undefined)	53.9%
CCOc1cc(/C=C2/SC(=S)NC2=O)ccc1OC(=O)c1ccco1	34.7%
COc1cc(/C=C2\SC(=O)N(c3ccccc3Cl)C2=O)cc([N+](=O)[O-])c1O	32.9%
COc1cc(/C=C2\SC(=O)N(Cc3ccc(F)cc3)C2=O)cc([N+](=O)[O-])c1O	44.7%
COCCN=c1scc(-c2cc(OC)ccc2OC)n1/N=C/c1c[nH]c2ccccc12	12.7%
C=CCc1c(C)c(C#N)c2nc3ccccc3n2c1NCCN(C)C	59.2%
O=C(COC(=O)c1ccccn1)Nc1cccc(Cl)c1Cl	6.98%
CC12CCC(c3c(C(=O)O)nn(-c4ccc(F)cc4)c31)C2(C)C (centres undefined)	4.67%
CCOC(=S)SCC(=O)Nc1nc(-c2ccccc2)cs1	79%
O=C1NN=C(c2ccc(Cl)cc2)CC1c1cccc(Br)c1 (centres undefined)	57.7%
O=C1CC(C(=O)NCc2ccccc2)C2(CCCC2)O1 (centres undefined)	11.4%
Oc1ccc2ccccc2c1/C=N/c1nc2c(s1)CCCC2	3.62%

From PubChem BioAssay AID1362 (SRMLSC, 2008)
